Data published in the supplement of paper PMC12355420.
Counter-ions that a name gives are not always drawn. The list shows a part of the results. Rule as the data show it: active = 0.5 or less and inactive = the rest. Most values come without repeats; read them as rough.
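For relative mutant VPS33A R498W amount (NanoLuc luminescence) vs DMSO in this document: screen of an FDA-approved drug library, NanoLuc luminescence read after lysing the treated cells, taken as a measure of mutant VPS33A protein stability.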

What follows are compounds tested on HeLa VPS33A R498W KI + HA-SDC1-FLAG (assay: relative GAG core protein HA-SDC1 amount per cell number vs DMSO (fraction of DMSO); higher = more SDC1 (GAG core protein)). Details: 50 µM; 24 h.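 Also: HA-SDC1 level read out by In-Cell Western staining with an anti-HA antibody against the N-terminal tag, screening FDA-approved library drugs.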
For CC1(C)S[C@@H]2[C@H](NC(=O)[C@H](N)c3ccccc3)C(=O)N2[C@H]1C(=O)O [Ampicillin Trihydrate], the “relative GAG core protein HA-SDC1 amount per cell number” value was inactive: 1.24.
For COc1cc(C(=O)O)ccc1NC(=O)[C@@H]1N[C@@H](CC(C)(C)C)[C@](C#N)(c2ccc(Cl)cc2F)[C@H]1c1cccc(Cl)c1F, the “relative GAG core protein HA-SDC1 amount per cell number” value was inactive: 0.524.
With OC[C@H]1O[C@H](OCC2O[C@@H](O)[C@H](O)[C@@H](O)[C@@H]2O)[C@H](O)[C@@H](O)[C@H]1O (some centres undefined) [Melibiose] the “relative GAG core protein HA-SDC1 amount per cell number” value was inactive: 0.85.
With CCCc1nn(C)c2c(=O)[nH]c(-c3cc(S(=O)(=O)N4CCN(C)CC4)ccc3OCC)nc12 [Sildenafil mesylate] the “relative GAG core protein HA-SDC1 amount per cell number” value was inactive: 0.908.
In the case of [F-].[Na+] [sodium fluoride], the “relative GAG core protein HA-SDC1 amount per cell number” value is reported as inactive: 0.957.
In the case of CCN[C@H]1C[C@H](C)S(=O)(=O)c2sc(S(N)(=O)=O)cc21 [Dorzolamide HCl], the “relative GAG core protein HA-SDC1 amount per cell number” value is reported as inactive: 1.27.
With CCc1c2c(nc3ccc(OC(=O)N4CCC(N5CCCCC5)CC4)cc13)-c1cc3c(c(=O)n1C2)COC(=O)[C@]3(O)CC [Irinotecan] the “relative GAG core protein HA-SDC1 amount per cell number” value was inactive: 0.752.
With Cc1ccc(Nc2c(F)cccc2Cl)c(CC(=O)O)c1 [Lumiracoxib] the “relative GAG core protein HA-SDC1 amount per cell number” value was inactive: 0.912.
For CC(=O)OCC(=O)[C@@]1(O)CC[C@H]2[C@@H]3CCC4=CC(=O)CC[C@]4(C)[C@H]3C(=O)C[C@@]21C [Cortisone acetate], the “relative GAG core protein HA-SDC1 amount per cell number” value was inactive: 0.969.
With CCC(CC)O[C@@H]1C=C(C(=O)O)C[C@H](N)[C@H]1NC(C)=O [Oseltamivir acid] the “relative GAG core protein HA-SDC1 amount per cell number” value was inactive: 1.6.

Each compound was assayed on HeLa VPS33A KO + NLuc-VPS33A R498W (assay: relative mutant VPS33A R498W amount (NanoLuc luminescence) vs DMSO (fraction of DMSO); HeLa model of a glycosaminoglycan (GAG) storage disease; KI is knock-in and KO knock-out; SDC1 is syndecan 1; higher = higher mutant VPS33A level). Details: 50 µM; 24 h.
N#C[C@@H]1C[C@@H]2C[C@@H]2N1C(=O)[C@@H](N)C12CC3CC(CC(O)(C3)C1)C2 [Saxagliptin] was tested, and the “relative mutant VPS33A R498W amount” value was 0.831.
For CCC(=O)NS(=O)(=O)c1ccc(-c2c(-c3ccccc3)noc2C)cc1 [Parecoxib Sodium], the “relative mutant VPS33A R498W amount” value was 0.53.
For Cc1c(N(C)C)c(=O)n(-c2ccccc2)n1C [Amidopyrine], the “relative mutant VPS33A R498W amount” value was 1.41.
CC(=O)O[C@H]1Cc2ccccc2N(C(N)=O)c2ccccc21 [Eslicarbazepine acetate] was tested, and the “relative mutant VPS33A R498W amount” value was 1.16.
With O=CC[C@@H](O)[C@H](O)[C@H](O)CO [2-Deoxy-D-glucose] the “relative mutant VPS33A R498W amount” value was 0.802.
CCCc1nc(C)c2c(=O)nc(-c3cc(S(=O)(=O)N4CCN(CC)CC4)ccc3OCC)[nH]n12 [Vardenafil] was tested, and the “relative mutant VPS33A R498W amount” value was 0.675.
With Nc1nc(N)nc(-c2cc(Cl)ccc2Cl)n1 [Irsogladine] the “relative mutant VPS33A R498W amount” value was 1.29.
In the case of CO[C@@]1(NC(=O)C(C(=O)O)c2ccc(O)cc2)C(=O)N2C(C(=O)O)=C(CSc3nnnn3C)CO[C@@H]21 (some centres undefined) [Moxalactam (sodium salt)], the “relative mutant VPS33A R498W amount” value is reported as 1.89.
N#CC1(c2ccc(NC(=O)c3cccnc3NCc3ccncc3)cc2)CCCC1 [Apatinib] was tested, and the “relative mutant VPS33A R498W amount” value was 0.299.
O=c1c(-n2ccnn2)c[nH]n1-c1cc(N2CCOCC2)ncn1 [Molidustat (BAY85-3934)] was tested, and the “relative mutant VPS33A R498W amount” value was 1.44.
CN(c1nccc(=O)[nH]1)C1CCN(c2nc3ccccc3n2Cc2ccc(F)cc2)CC1 [Mizolastine] was tested, and the “relative mutant VPS33A R498W amount” value was 0.287.
With CCCCN1CCCCC1C(=O)Nc1c(C)cccc1C (centres undefined) [Bupivacaine HCl] the “relative mutant VPS33A R498W amount” value was 1.15.
For O=c1[nH]c(=O)n(C2CCCO2)cc1F (centres undefined), the “relative mutant VPS33A R498W amount” value was 1.41.
OCc1ccc(O[C@@H]2O[C@H](CO)[C@@H](O)[C@H](O)[C@H]2O)cc1 [Gastrodin] was tested, and the “relative mutant VPS33A R498W amount” value was 1.46.
With CN(C)CC(c1ccc(O)cc1)C1(O)CCCCC1 (centres undefined) [Desvenlafaxine] the “relative mutant VPS33A R498W amount” value was 1.32.
With CCCN(CCC)S(=O)(=O)c1ccc(C(=O)O)cc1 [Probenecid] the “relative mutant VPS33A R498W amount” value was 1.4.
With CCCCC1=NC2(CCCC2)C(=O)N1Cc1ccc(-c2ccccc2-c2nnn[nH]2)cc1 [Irbesartan] the “relative mutant VPS33A R498W amount” value was 1.08.
In the case of Nc1ccc(S(N)(=O)=O)cc1 [Sulfanilamide], the “relative mutant VPS33A R498W amount” value is reported as 1.12.
Nc1nnc(-c2cccc(Cl)c2Cl)c(N)n1 [Lamotrigine] was tested, and the “relative mutant VPS33A R498W amount” value was 1.21.
In the case of NC(=O)N1c2ccccc2C=Cc2ccccc21 [Carbamazepine], the “relative mutant VPS33A R498W amount” value is reported as 0.995.
With CN1CCc2nc(C(=O)N[C@@H]3C[C@@H](C(=O)N(C)C)CC[C@@H]3NC(=O)C(=O)Nc3ccc(Cl)cn3)sc2C1 [Edoxaban] the “relative mutant VPS33A R498W amount” value was 1.27.
For CC(=O)N[C@H](Cc1ccc2ccccc2c1)C(=O)N[C@H](Cc1ccc(Cl)cc1)C(=O)N[C@H](Cc1cccnc1)C(=O)N[C@@H](CO)C(=O)N[C@@H](Cc1ccc(O)cc1)C(=O)N[C@H](CCCNC(N)=O)C(=O)N[C@@H](CC(C)C)C(=O)N[C@@H](CCCNC(=N)N)C(=O)N1CCC[C@H]1C(=O)N[C@H](C)C(N)=O [Cetrorelix], the “relative mutant VPS33A R498W amount” value was 0.509.
For CN(C)C(=O)c1ccc(S(=O)(=O)c2ccc(NC(=O)[C@@](C)(O)C(F)(F)F)c(Cl)c2)cc1, the “relative mutant VPS33A R498W amount” value was 0.631.
In the case of NC[C@H]1O[C@H](O[C@H]2[C@H](O[C@@H]3O[C@H](CO)[C@@H](O)[C@H]3O)[C@@H](O)[C@H](N)C[C@@H]2N)[C@H](N)[C@@H](O)[C@@H]1O [Ribostamycin Sulfate], the “relative mutant VPS33A R498W amount” value is reported as 0.835.
With N[C@@H](C=O)[C@@H](O)[C@H](O)[C@H](O)CO [Chitosamine hydrochloride] the “relative mutant VPS33A R498W amount” value was 1.1.
O=C(O)[C@H]1O[C@@H](Oc2cc3oc(-c4ccc(O)cc4)cc(=O)c3c(O)c2O)[C@H](O)[C@@H](O)[C@@H]1O [Scutellarin] was tested, and the “relative mutant VPS33A R498W amount” value was 1.78.
For O=C(O)c1ccc(O)c(O)c1 [3,4-Dihydroxybenzoic acid], the “relative mutant VPS33A R498W amount” value was 1.22.
With C=C1CC[C@@H]2[C@](C)(CO)[C@H](O)CC[C@@]2(C)[C@H]1C/C=C1\C=COC1=O [Dehydroandrographolide] the “relative mutant VPS33A R498W amount” value was 0.912.
Cc1c(C)c2c(c(C)c1O)CC[C@@](C)(CCC[C@H](C)CCC[C@H](C)CCCC(C)C)O2 [alpha-tocopherol] was tested, and the “relative mutant VPS33A R498W amount” value was 1.15.
For CC1(C)S[C@@H]2[C@H](NC(=O)[C@H](N)c3ccccc3)C(=O)N2[C@H]1C(=O)O [Ampicillin Trihydrate], the “relative mutant VPS33A R498W amount” value was 1.3.
For COc1cc(C(=O)O)ccc1NC(=O)[C@@H]1N[C@@H](CC(C)(C)C)[C@](C#N)(c2ccc(Cl)cc2F)[C@H]1c1cccc(Cl)c1F, the “relative mutant VPS33A R498W amount” value was 0.925.
In the case of OC[C@H]1O[C@H](OCC2O[C@@H](O)[C@H](O)[C@@H](O)[C@@H]2O)[C@H](O)[C@@H](O)[C@H]1O (some centres undefined) [Melibiose], the “relative mutant VPS33A R498W amount” value is reported as 1.33.
For CCCc1nn(C)c2c(=O)[nH]c(-c3cc(S(=O)(=O)N4CCN(C)CC4)ccc3OCC)nc12 [Sildenafil mesylate], the “relative mutant VPS33A R498W amount” value was 0.654.
In the case of [F-].[Na+] [sodium fluoride], the “relative mutant VPS33A R498W amount” value is reported as 1.1.
In the case of CCN[C@H]1C[C@H](C)S(=O)(=O)c2sc(S(N)(=O)=O)cc21 [Dorzolamide HCl], the “relative mutant VPS33A R498W amount” value is reported as 1.05.
With CCc1c2c(nc3ccc(OC(=O)N4CCC(N5CCCCC5)CC4)cc13)-c1cc3c(c(=O)n1C2)COC(=O)[C@]3(O)CC [Irinotecan] the “relative mutant VPS33A R498W amount” value was 0.731.
With Cc1ccc(Nc2c(F)cccc2Cl)c(CC(=O)O)c1 [Lumiracoxib] the “relative mutant VPS33A R498W amount” value was 0.936.
For CC(=O)OCC(=O)[C@@]1(O)CC[C@H]2[C@@H]3CCC4=CC(=O)CC[C@]4(C)[C@H]3C(=O)C[C@@]21C [Cortisone acetate], the “relative mutant VPS33A R498W amount” value was 1.39.
With CCC(CC)O[C@@H]1C=C(C(=O)O)C[C@H](N)[C@H]1NC(C)=O [Oseltamivir acid] the “relative mutant VPS33A R498W amount” value was 1.41.
